Laboratory results taken from PubChem BioAssay AID720523 (National Center for Advancing Translational Sciences (NCATS), 2013).
Hit rate of the full screen: of about 1,400 compounds, about 25 (2%) were called active. The inconclusive results got no clear call from the source; some entries with a clear call stand among them for comparison. The call rests on the fitted dose curve; in most records, active means well fitted inhibition curve with a large enough effect; inconclusive means small, poorly fitted or top-dose-only effect; inactive means flat fitted curve, though single readings scatter. Potencies of inconclusive entries are doubtful fits and often do not repeat.

Test: Nrf2 qHTS screen for inhibitors: A549 ARE-Fluc Cytotoxicity Counterscreen for Hit Validation
Conditions: A549 ARE-Fluc cells; series mostly up to 46.1 µM
Procedure, shortened: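 A549 ARE-Fluc cells (5000/well) pre-incubated 2 h at 37°C, then exposed to compounds 18-24 h at 37°C, 5% CO2. CellTiter Fluor added for 30 min; fluorescence (Ex 405/Em 525 nm) decrease indicates cytotoxicity. Data normalized to positive and negative controls.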
Potency means the concentration at half of the fitted maximal effect; tags describe the fitted curve by direction and shape.

SMILES | Potency
COc1ccc(Cl)cc1NC(=O)CSC1=Nc2ccccc2C2=NC(CCC(=O)NCc3ccc(F)cc3)C(=O)N12 (stereo not drawn) | inconclusive: 20.6 µM [inhibitor, single point]
C(=C\c1ccc2ccccc2n1)/c1ccccc1 | inconclusive: 8.2 µM [inhibitor, partial curve]
Cc1nc2ccccn2c1C(=O)NC1CCCc2ccccc21 (stereo not drawn) | inactive
CC[C@H]1CN2CCc3cc(OC)c(OC)cc3C2C[C@@H]1C[C@H]1NCCc2cc(OC)c(OC)cc21 (stereo partly drawn) | inconclusive: 0.291 µM [inhibitor, full curve]
COc1ccc2c(c1)N(C)/C(=C/c1cccc[n+]1C)S2 | inconclusive: 6.51 µM [inhibitor, partial curve]
CCOc1ccc(S(=O)(=O)N(C)c2ccc(OCC(=O)Nc3nc4ccccc4s3)cc2)cc1 | inactive
CN1/C(=C/c2cccc[n+]2C)Sc2ccccc21 | inconclusive: 20.6 µM [inhibitor, partial curve]
CC(=O)N(C(C)=O)N1C(=O)C2C3c4ccccc4C(c4ccccc43)C2C1=O (stereo not drawn) | inconclusive: 23.1 µM [inhibitor, single point]
C=CCn1c(SCc2c(C)noc2C)nc2sc3c(c2c1=O)CCCC3 | inactive
COc1ccc(CNc2cc(C)nc3ncnn23)c(OC)c1 | inactive
COc1cc(OC)c(/C=C/c2cc3ccccc3c[n+]2C)c(OC)c1 | inconclusive: 14.6 µM [inhibitor, partial curve]
Nc1nncn1C(=O)c1ccc(Cl)cc1Cl | inactive
COc1ccc(NC(=O)c2ccc(Cl)c(S(=O)(=O)N3CC(C)OC(C)C3)c2)cn1 (stereo not drawn) | inactive
CCN(CC)S(=O)(=O)c1ccc2oc(C(=O)NCc3ccc(F)cc3)c(C)c2c1 | inactive
CCOc1ccc2c(c1)C(=NNC(=O)c1ccncc1)c1cc(OCC)ccc1-2 | inconclusive: 7.31 µM [inhibitor, partial curve]
NC(=S)N/N=C/c1ncc(C(F)(F)F)cc1Cl | inconclusive: 20.6 µM [inhibitor, single point]
CC1=C(C(=O)OCc2ccc3c(c2)OCO3)C(c2ccc(F)cc2)NC(=O)N1 (stereo not drawn) | inactive
FC(F)(F)c1cccc(Nc2nc3nonc3nc2Nc2ccc(Cl)cc2)c1 | active: 4.61 µM
COc1ccc(Nc2nc(-c3cccs3)nc3ccccc23)cc1S(=O)(=O)N1CCOCC1 | inconclusive: 13 µM [inhibitor, partial curve]
CCN1/C(=C/c2ccc3cc(C)cc(C)c3[n+]2CC)Sc2cc(C)ccc21 | inconclusive: 11.6 µM [inhibitor, partial curve]
O=[N+]([O-])c1ccc(S(=O)(=O)CC2CSc3nc4ccccc4n32)cc1 (stereo not drawn) | inconclusive: 2.06 µM [inhibitor, full curve]

SMILES | Potency
C/C(=N/NC(=O)c1ccc(C(C)(C)C)cc1)c1ccccn1 | inconclusive: 0.184 µM [inhibitor, full curve, poor fit]
Cc1nn(Cc2ccc(Cl)cc2)c(C)c1NC(=O)CSc1nc2c(c(C(F)(F)F)n1)CCc1ccccc1-2 | inconclusive: 5.8 µM [inhibitor, partial curve]
CCOC(=O)c1c(Nc2ccc(Cl)cc2)sc(/C=C2\C=Nc3ccccc32)c1O | inconclusive: 23.1 µM [inhibitor, partial curve]
O=[N+]([O-])c1ccc(N/N=C/c2sc(N3CCOCC3)nc2-c2ccccc2)c(S(=O)(=O)Nc2ccc(Cl)cc2)c1 | inconclusive: 5.8 µM [inhibitor, partial curve]
CNC(=O)c1cccc2nc3ccccc3nc12 | inconclusive: 8.2 µM [inhibitor, partial curve]
C1=C/C(=C2/C=Cc3ccccc32)c2ccccc2N1 | inconclusive: 20.6 µM [inhibitor, single point]
O=C1C=CCC(/C=C/c2ccccc2)O1 (stereo not drawn) | inconclusive: 18.4 µM [inhibitor, partial curve]
CCN(CC)c1ccc(/C=C/c2ccncc2)cc1 | active: 6.51 µM
O=C(/C=C/c1ccccc1)NC(NC(=S)Nc1ccc(Cl)cc1)C(Cl)(Cl)Cl (stereo not drawn) | inconclusive: 8.2 µM [inhibitor, partial curve]
CCOC(=O)c1c(NC(=O)Cn2c(C)nc3ccccc32)sc2c1CCC2 | inactive
Cc1ccc(/C=C2/SC(=S)N(CCCC(=O)Nc3ccc(O)cc3)C2=O)cc1 | inconclusive: 29.1 µM [inhibitor, single point]
O=C(Nc1nc(-c2ccc3ccccc3c2)cs1)C1CCN(S(=O)(=O)c2cccs2)CC1 | inactive
CN1/C(=C/c2cc[n+](C)c3ccccc23)C=Cc2ccccc21 | inconclusive: 20.6 µM [inhibitor, partial curve]
O=C(Nc1ccc(S(=O)(=O)N2CCCC2)cc1)c1ccc(CN2CCOCC2)cc1 | inactive
COc1cccc(-c2cc(C(=O)Nc3cc(C)n(Cc4ccc(Cl)cc4)n3)no2)c1 | inactive
Cc1nn(Cc2ccc(Cl)cc2)c(C)c1NC(=O)c1cc(-c2ccc3c(c2)OCO3)on1 | inactive
CSc1ccc(CN(C)C(=O)c2cccc(S(=O)(=O)N3CCN(Cc4ccccc4)CC3)c2)cc1 | inactive
Cc1ccc2[nH]cc(/C=C/c3cc[n+](C)cc3)c2c1 | inactive
COc1nnc(-c2ccc(N3CCCCC3)c(NC(=O)c3ccccc3Cl)c2)c2ccccc12 | inactive
CCCC(=O)O[C@]1(C(=O)CO)CC[C@H]2[C@@H]3CCC4=CC(=O)CC[C@]4(C)[C@H]3[C@@H](O)C[C@@]21C | inactive
CCN(CC)c1ccc(Nc2nc(N3CCOCC3)c3ccccc3n2)cc1 | inactive

SMILES | Potency
Cc1cc(C(=O)NC2CCCc3c2cnn3-c2cccc(C)c2C)n(C)n1 (stereo not drawn) | inconclusive: 0.058 µM [inhibitor, full curve]
Cc1cc2c(=Cc3ccc(N(C)C)cc3)c3ccccc3n2[n+]1C | inconclusive: 16.4 µM [inhibitor, partial curve]
CCOc1ccc(S(=O)(=O)Nc2cnc3ccccc3c2)cc1 | inactive
CCC(C)NC(=O)C1CCN(C(=O)c2cc3sccc3n2Cc2ccc(Cl)cc2)CC1 (stereo not drawn) | inconclusive: 9.2 µM [inhibitor, partial curve]
CC(C)n1cc(/C=C/c2cc[n+](C)cc2)c2ccccc21 | inconclusive: 16.4 µM [inhibitor, partial curve]
CC(=O)c1cccc(NS(=O)(=O)c2ccc(C(=O)Nc3ccccc3)cc2)c1 | inactive
CCC[C@H]1NC(=O)[C@H](C)N(C)C(=O)C(C)(C)C(=O)C(C)NC(=O)[C@H](Cc2ccc(OC)cc2)N(C)C(=O)[C@H](C(C)C)N(C)C(=O)CNC(=O)[C@H](CC(C)C)N(C)C(=O)CNC(=O)[C@H]([C@@H](C)CC)OC(=O)[C@H]1C (stereo partly drawn) | inconclusive: 0.92 µM [inhibitor, full curve]
O=c1c2ccccc2nc2n1CCN2Cc1ccc(Cl)cc1 | inactive
O=C(Nc1nc(-c2ccccc2)cs1)c1ccc(N2CCOCC2)c([N+](=O)[O-])c1 | inconclusive: 18.4 µM [inhibitor, single point]
CCN(CC)c1ccc(/C=C/c2ccccn2)cc1 | active: 9.2 µM
Cc1ccc(CCNc2ncnc3onc(C)c23)cc1 | inactive
CCN1/C(=C/c2ccc3cccc(C)c3[n+]2CC)Sc2ccccc21 | inconclusive: 23.1 µM [inhibitor, single point]
COC(=O)CCn1nnc(-c2ccc(C(C)C)cc2)n1 | inactive
Cc1cc(F)ccc1S(=O)(=O)Nc1ccccc1C(=O)Nc1ccccc1-c1nc2ccccc2[nH]1 | inconclusive: 20.6 µM [inhibitor, partial curve]
Cc1ccc(Cn2c(C)c3cnn(CC(=O)N4CCN(c5cc(C)ccc5C)CC4)c(=O)c3c2C)cc1 | inactive
O=C(Nc1cc(S(=O)(=O)N2CCCCC2)ccc1Cl)c1ccccc1NS(=O)(=O)c1ccc(F)cc1 | inconclusive: 8.2 µM [inhibitor, partial curve]
CC(=O)C1(O)Cc2c(O)c3c(c(O)c2C(OC2CC(N)C(O)C(C)O2)C1)C(=O)c1c(O)cccc1C3=O (stereo not drawn) | inconclusive: 2.91 µM [inhibitor, partial curve]
CC(NNC(=S)N1CCN(c2ccccn2)CC1)c1nccc2ccccc12 (stereo not drawn) | inconclusive: 7.31 µM [inhibitor, partial curve]
c1ccc(-c2nnc(-c3ccccn3)nc2NC2CCCCC2)cc1 | inconclusive: 16.4 µM [inhibitor, partial curve, poor fit]
CC1(C)CC2CC(C)(CN2S(=O)(=O)c2ccc(C(=O)Nc3ccc(S(=O)(=O)N4CCOCC4)cc3)cc2)C1 (stereo not drawn) | inactive
O=C(O)CCSc1nnc(-c2ccc(Cl)cc2Cl)o1 | inactive

SMILES | Potency
CC(C)(C)OC(=O)NCCCC[C@H](NC(=O)c1nc[nH]c1C(=O)NC(c1ccccc1)c1ccccc1)C(=O)OC(C)(C)C | inconclusive: 29.1 µM [inhibitor, single point]
COC(=O)c1[nH]c2c(c1C)C(=O)CC(c1cc(OC)c(OC)c(OC)c1)C2 (stereo not drawn) | inactive
Cc1cc(N(C)C)cc(C)c1/C=C/c1ccnc2ccccc12 | inconclusive: 29.1 µM [inhibitor, single point]
CC1Cc2cc(S(=O)(=O)N3CCN(c4ccc(Cl)cc4)CC3)ccc2N1C(=O)C1CC1 (stereo not drawn) | inactive
CC[N+](CC)(CC)c1ccc(/C=C/c2ccc3ccccc3n2)cc1 | active: 9.2 µM
COC(=O)c1ccc2c(c1O)C(=O)c1ccccc1C2=O | active: 3.66 µM
CCCCn1c(CN2CCN(c3ccccc3)CC2)nc2c1c(=O)n(C)c(=O)n2C | inactive
Cc1ccc(-c2c[n+]3c(n2-c2ccccc2)SCC3)cc1 | inactive
CN(Cc1cnc2nc(N)nc(N)c2n1)c1ccc(C(=O)NC(CCC(=O)O)C(=O)O)cc1 (stereo not drawn) | inactive
CCC(NC(=O)c1cc(COc2ccc(C)nc2)on1)c1ccc(C)cc1 (stereo not drawn) | inactive
Cc1cc(NC(=O)CSc2nc3c(sc4ccccc43)c(=O)n2CCCN2CCOCC2)n[nH]1 | inconclusive: 13 µM [inhibitor, partial curve]
O=C(N/N=C/c1ccc([N+](=O)[O-])s1)c1ccccc1Br | inactive
CC1CCCN(S(=O)(=O)c2ccc(C(=O)Nc3nnc(C4CC4)o3)cc2)C1 (stereo not drawn) | inconclusive: 25.9 µM [inhibitor, single point]
C=CC[n+]1c(/C=C2\C=Cc3cc(C)ccc3N2CC)ccc2ccccc21 | active: 14.6 µM
Nc1cc[n+](CC(=O)c2ccc3c(c2)OCCO3)cc1 | inconclusive: 18.4 µM [inhibitor, partial curve]
Cc1nc2ccc(NC(=O)c3cccs3)cc2c(=O)n1Cc1ccc(Cl)cc1 | inconclusive: 29.1 µM [inhibitor, single point]
Cc1nnsc1C(=O)NC1CCCc2c1cnn2-c1ccc(C(C)(C)C)cc1 (stereo not drawn) | inactive
CC(C)COc1ccccc1C1CC(=O)Nc2cc3c(cc21)OCO3 (stereo not drawn) | inconclusive: 18.4 µM [inhibitor, single point]
Cc1ccnc2ccc3ccccc3c12 | inactive
CCN(Cc1ccccc1)S(=O)(=O)c1ccc(C(=O)N2CCN(c3nc4ccccc4s3)CC2)cc1 | inactive
